The other results are listed elsewhere or left out. Repeats are few or missing, and single values can be far off.
Key:
Assay in all cases: proliferation Z-score within cell line (SRB, relative to all inhibitors screened on that line); triple-negative breast cancer lines and a kinase inhibitor library; SRB is the sulforhodamine B protein stain; higher = less growth inhibition (more resistant)
Settings in all cases: concentration: 1 µM; 4 days
[1] = test system: Bt20
[2] = test system: Bt549
[3] = test system: HCC1143
[4] = test system: HCC1806
[5] = test system: HCC1937
[6] = test system: HCC38
[7] = test system: HCC70
[8] = test system: Hs578T
[9] = test system: MDA-MB-231
[10] = test system: MDA-MB-435s
[11] = test system: MDA-MB-436
[12] = test system: MDA-MB-453
[13] = test system: MDA-MB-468
[14] = test system: SKBR7
[15] = test system: SUM1315MO2
[16] = test system: SUM149PT
[17] = test system: SUM159PT
[18] = test system: SUM185PE
[19] = test system: SUM229PE
[20] = test system: SUM52PE
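Note: Single-dose primary screen of a 378-member kinase inhibitor library in 96-well plates, with growth read as absorbance of protein-bound SRB dye after TCA fixation.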

Structure (SMILES)	proliferation Z-score within cell line [1]	proliferation Z-score within cell line [2]	proliferation Z-score within cell line [3]	proliferation Z-score within cell line [4]	proliferation Z-score within cell line [5]	proliferation Z-score within cell line [6]	proliferation Z-score within cell line [7]	proliferation Z-score within cell line [8]	proliferation Z-score within cell line [9]	proliferation Z-score within cell line [10]	proliferation Z-score within cell line [11]	proliferation Z-score within cell line [12]	proliferation Z-score within cell line [13]	proliferation Z-score within cell line [14]	proliferation Z-score within cell line [15]	proliferation Z-score within cell line [16]	proliferation Z-score within cell line [17]	proliferation Z-score within cell line [18]	proliferation Z-score within cell line [19]	proliferation Z-score within cell line [20]
CCN(CC)CCCCNc1ncc2cc(-c3cc(OC)cc(OC)c3)c(NC(=O)NC(C)(C)C)nc2n1	0.785	-0.339	-0.585	0.578	0.0557	0.593	0.302	0.211	0.985	0.947	0.263	-0.414	1.02	0.671	-1.31	0.545	0.755	-1.95	0.487	-1.45
Cn1cnc2c(F)c(Nc3ccc(Br)cc3F)c(C(=O)NOCCO)cc21	-0.263	0.498	-1.42	-1.35	0.0443	-0.0925	-0.447	-0.502	-2.16	-2.24	0.23	0.395	0.343	1.32	0.197	-1.64	0.399	-0.529	-2.52	-1.5
CC(=O)Nc1cccc(-n2c(=O)n(C3CC3)c(=O)c3c(Nc4ccc(I)cc4F)n(C)c(=O)c(C)c32)c1	-0.0485	-0.743	-1.43	-1.01	-0.601	-0.305	-0.585	-0.641	-1.31	-1.13	-1.18	-0.799	-1.29	0.727	-0.39	-1.87	-0.148	0.00168	-1.58	-1.02
COc1cc2c(Oc3ccc4[nH]c(C)cc4c3F)ncnc2cc1OCCCN1CCCC1 [Cediranib (AZD2171)]	0.135	-0.225	0.331	-1.82	0.442	0.0492	0.557	0.0349	0.935	0.497	0.483	-0.562	0.197	-0.718	-1.55	-0.117	0.402	-1.48	-0.437	-1.3
CNC(=O)CN1CCC(Oc2cc3c(Nc4cccc(Cl)c4F)ncnc3cc2OC)CC1 [AZD8931 (Sapitinib)]	-0.917	0.503	-2.02	-1.61	-0.288	0.125	-1.46	0.548	0.67	0.546	-0.7	-0.914	-1.06	-0.302	0.0649	-0.699	-1.27	0.232	-0.727	-0.182
CN(C)CCOc1ccc(-c2nc(-c3ccncc3)c(-c3ccc4c(c3)CC/C4=N\O)[nH]2)cc1	1.62	1.01	0.586	1.39	0.885	0.62	0.827	0.757	0.983	-1.31	1.34	0.803	1.32	0.114	1.42	1.12	0.346	0.886	1.58	-1.06

From the supplement of paper PMC6746778
